This is an account of results in article PMC6901440.

Protein sequences, listed by entry. Tags and fused reporters are not part of them. Lines headed by an entry give the natural chain unless they say otherwise; changes in a name come on top.
UniProt P10415: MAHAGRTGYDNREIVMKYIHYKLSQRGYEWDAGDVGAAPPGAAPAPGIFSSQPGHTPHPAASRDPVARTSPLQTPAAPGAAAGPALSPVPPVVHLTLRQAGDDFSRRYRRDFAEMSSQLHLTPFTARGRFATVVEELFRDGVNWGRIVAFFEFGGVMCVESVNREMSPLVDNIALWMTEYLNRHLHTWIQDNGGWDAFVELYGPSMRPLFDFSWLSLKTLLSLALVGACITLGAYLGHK

Common to all, as to assay: co-IP; HEK-293T cells transfected with Flag-tagged GSDMD or MLKL constructs and Bcl-2 or Bcl-2 G145A (MLKL also with RIP3); anti-Flag agarose beads; Bcl-2 detected by blot; washed eight times with lysis buffer
Test [1] deals with T1, Flag-GSDMD N-terminal fragment (human) (UniProt P57764).
T1 sequence: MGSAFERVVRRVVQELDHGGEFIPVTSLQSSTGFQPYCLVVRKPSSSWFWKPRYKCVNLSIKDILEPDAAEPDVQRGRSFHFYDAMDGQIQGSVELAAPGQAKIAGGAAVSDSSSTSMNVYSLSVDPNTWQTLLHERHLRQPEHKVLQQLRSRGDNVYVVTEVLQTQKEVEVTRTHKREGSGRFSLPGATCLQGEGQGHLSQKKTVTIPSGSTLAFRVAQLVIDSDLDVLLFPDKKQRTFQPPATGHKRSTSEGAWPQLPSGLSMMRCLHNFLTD

For test [2], the target named is T2, Flag-GSDMD full length (human) (UniProt P57764).
T2 sequence: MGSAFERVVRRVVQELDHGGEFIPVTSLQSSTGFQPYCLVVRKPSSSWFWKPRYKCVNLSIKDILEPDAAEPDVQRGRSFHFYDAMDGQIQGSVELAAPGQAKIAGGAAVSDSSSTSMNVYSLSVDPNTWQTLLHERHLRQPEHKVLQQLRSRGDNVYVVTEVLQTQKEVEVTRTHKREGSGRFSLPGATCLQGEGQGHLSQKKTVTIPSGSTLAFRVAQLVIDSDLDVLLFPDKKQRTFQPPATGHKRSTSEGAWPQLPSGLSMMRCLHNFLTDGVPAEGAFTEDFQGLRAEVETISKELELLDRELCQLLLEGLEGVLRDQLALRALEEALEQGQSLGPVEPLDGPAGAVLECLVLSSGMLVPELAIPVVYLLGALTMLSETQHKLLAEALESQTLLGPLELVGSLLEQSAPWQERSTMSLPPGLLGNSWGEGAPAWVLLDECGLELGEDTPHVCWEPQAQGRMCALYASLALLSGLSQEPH

The target of the next test is T3, Flag-MLKL (human) (UniProt Q8NB16).
T3 sequence: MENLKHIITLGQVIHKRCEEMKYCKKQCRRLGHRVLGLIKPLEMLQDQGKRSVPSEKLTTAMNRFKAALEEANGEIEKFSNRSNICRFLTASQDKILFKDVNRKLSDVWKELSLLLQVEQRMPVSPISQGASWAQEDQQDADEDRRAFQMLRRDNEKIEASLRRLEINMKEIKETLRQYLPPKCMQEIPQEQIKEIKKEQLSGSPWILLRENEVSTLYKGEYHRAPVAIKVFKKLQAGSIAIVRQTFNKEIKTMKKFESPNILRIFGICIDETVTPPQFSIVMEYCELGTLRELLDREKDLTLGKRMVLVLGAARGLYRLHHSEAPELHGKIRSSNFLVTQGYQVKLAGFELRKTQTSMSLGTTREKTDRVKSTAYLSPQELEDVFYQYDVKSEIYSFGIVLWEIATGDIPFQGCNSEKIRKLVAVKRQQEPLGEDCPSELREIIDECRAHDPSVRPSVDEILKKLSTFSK

Test [3] has as its target T4, Flag-MLKL T357A/S358A (human) (UniProt Q8NB16).
T4 sequence: T3 sequence with T357A, S358A

Test [4] addresses T5, Flag-MLKL phosphorylated by co-expressed RIP3 (human) (UniProt Q8NB16).
T5 sequence (chain, phosphorylated by co-expressed RIP3 (sites TS357-58 as named in the legend)): T3 sequence

Substitutions are numbered along the chain they refer to. Results are given in words; binding and its absence hold for the method and conditions named. In cells and extracts the contact can be indirect. Some binding calls cover weakened binding; strength is not graded here. Tags and fused reporters may be left off the sequences shown.

On to “Bcl-2 (transfected, HEK-293T) (from UniProt P10415 1-239)”, for which the binding result (in test [1]; in test [2]; with Flag-MLKL (human); in test [3]; in test [4]) was “binds” throughout.

Regarding “Bcl-2 G145A (transfected, HEK-293T) (from UniProt P10415 1-239)”, the binding result in test [1] and in test [2] was “no binding” each time.
